The campaign covered roughly 48,000 compounds. About 120 (0.25%) were called active. Not shown: some 4% with an inconclusive outcome. Calls follow the shape of the dose curve; as a rule, active = well fitted activation curve with a large enough effect; inconclusive = small, poorly fitted or top-dose-only effect, or another doubt; inactive = no such curve, though single readings can be large or run the other way. Some of the results follow.
Test: Primary qHTS for Identification of Small Molecule Activators of Huntingtin-Antisense Promoter Activity; also: nearly all actives have a fitted effect of over 55% in size
Details: HEK293 HTT-AS promoter firefly luciferase reporter (activity 0% = vehicle and -100% = no light), 24 h; series mostly up to 57.5 µM; activity change, positive = activation: at the top concentration
Method in brief: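 HEK293 Fluc reporter, 2,500 cells/well, 24 h pre-culture; cpds up to 57.5 uM final, 24 h 37 degrees C; Dual-Glo, 10 min RT; normalized vehicle = 0%, zero RLU = -100%.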

Activity change, positive = activation, inactive:
CCCNS(=O)(=O)c1ccc2nc(NC(=O)c3ccc(F)cc3)sc2c1 -11.6%
O=C(NCCC1=CCCCC1)c1ccc2c(c1)N(Cc1ccccc1F)C(=O)c1ccccc1S2=O (stereo not drawn) -9.15%
CCc1cccc(-n2c(=O)c3cccnc3n2CC(=O)NCc2ccccc2)c1 -18%
CCn1nnc2cc(C(=O)Nc3ccc(Cl)cc3C)ccc21 -0.614%
COc1cccc(-c2cn3c(n2)sc2cc(C(=O)NCCCc4ccccc4)ccc23)c1 18.2%
CSc1ccc(CNC(=O)C2CCCN(S(=O)(=O)N(C)c3ccc(F)cc3)C2)cc1 (stereo not drawn) -65.1%
O=C(CC1(O)C(=O)N(CCc2ccccc2)c2ccc(Br)cc21)c1ccc(F)cc1 (stereo not drawn) -27.4%
CCOc1ccc(CCNC(=O)CCCn2c(=O)c3cccn3c3cccnc32)cc1OCC -1.52%
CCc1ccc2c(c1)c(=O)c(S(=O)(=O)c1ccc(Cl)cc1)cn2CC -15.4%
COc1cccc(CNCCSc2nnnn2C)c1OCc1ccccc1 -14.9%
COC(=O)CC1Oc2ccccc2-n2cc(-c3ccc(C)cc3)nc21 (stereo not drawn) -12.7%
Nc1c(C(=O)NCc2ccc(Cl)cc2Cl)nnn1Cc1ccc(Br)cc1 -42.1%
COc1ccc(OCC(=O)Nc2cc(-c3ccccc3F)nn2-c2ccccc2)cc1 13.1%
CCc1ccc(CNC(=O)c2cc3cc(S(=O)(=O)N4CCCCC4)ccc3n2C)cc1 -29.4%
Cc1ccc(S(=O)(=O)NCC2CCC(C(=O)NCc3ccc(F)cc3)CC2)cc1 (stereo not drawn) -5.34%
CCCn1ccc2c(OCC(=O)Nc3cc(C)ccc3C)cccc2c1=O -23.4%
Cc1cc(SCc2sc(-c3ccc(C(F)(F)F)cc3)nc2C)ccc1OCC(=O)O 21.4%
COCCCn1c(=N)c(C(=O)NCC2CCCO2)cc2c(=O)n3cc(C)ccc3nc21 (stereo not drawn) -1.01%
CC(=O)OCC(=O)[C@H]1CC[C@H]2[C@@H]3CCC4=CC(=O)CC[C@]4(C)[C@H]3CC[C@]12C -7.65%
Cc1ccc2c(=O)cc(C(=O)Nc3ccc(S(=O)(=O)N4CCC(C)CC4)cc3)oc2c1C -8.63%
O=C(Cc1ccccc1)Nc1sc2c(c1C(=O)Nc1ccccc1)CCCCC2 -3.77%
COc1cc(C2CC(=O)Nc3c2c(C)nn3-c2nc(C)cc(C)n2)cc(OC)c1O (stereo not drawn) -3.19%
COc1cccc(-c2nn3c(=O)cc(CN4CCN(S(=O)(=O)c5ccc(C)cc5)CC4)nc3s2)c1 0.62%
Cc1ccc(CSc2nnc(-n3c(=O)c(C#N)cc4c(=O)n5cccc(C)c5nc43)s2)cc1 -10.6%
COc1ccc(-c2nc3ccccc3n3c(-c4cccc(C)c4)c4c(=O)n(C)c(=O)n(C)c4c23)cc1 -7.16%
CSc1nc(=O)c2c(n1C)NC(=O)CC2c1ccccc1OC(C)C (stereo not drawn) -4.37%
O=C(/C=C/c1ccccc1)NCCO -2.85%
CCCCn1cc2c(c1-c1ccccc1Br)c(=O)n(C)c(=O)n2C -20.5%
Cc1nc(N2CCOCC2)c2c(C(=O)NCCc3ccccc3)c(C)oc2n1 19.5%
Cc1ccc(C(=O)n2nc(-c3ccco3)nc2NCc2cccs2)cc1 14.5%
COc1ccc(C)cc1NC(=O)C1CCN(S(=O)(=O)c2c(C)noc2/C=C/c2ccco2)CC1 -8.44%
O=C(Nc1ccc(F)cc1F)C(Cc1ccccc1)N1Cc2ccccc2C1=O (stereo not drawn) -22.9%
COc1cccc(-n2c(-c3ccc(Cl)cc3)cc3c2CC(C)(C)CC3=O)c1 -30.6%
C#C[C@]1(O)CC[C@H]2[C@@H]3CCC4=CC(=O)CC[C@@H]4[C@H]3CC[C@@]21CC -8.52%
Cc1ccc2nc(NC(=O)CSc3nc4c(c(=O)n3-c3ccccc3)SCC4)sc2c1 -33.7%
O=C(CCC(=O)N1CC2CCCN2c2ccccc21)NCc1cccc(Cl)c1 (stereo not drawn) -20.5%
COc1cc2c(=O)n(Cc3ccccc3Cl)c(=O)n(CC(=O)Nc3ccccc3)c2cc1OC -23.9%
Cc1ccc(C(=O)Nc2nc3ccc(S(=O)(=O)N4CCCC4)cc3s2)cc1 -3.25%
Cc1ccc(-c2nnc(SCC(=O)NC3CCCC3)nc2-c2ccc(C)cc2)cc1 -25.3%
COc1ccc(CN2C(=O)c3oc4ccc(F)cc4c(=O)c3C2c2ccc(O)cc2)cc1 (stereo not drawn) -11.6%
CCOc1ccc(NC(=O)CCC(=O)N2CC(C)Oc3ccc(C)cc32)cc1 (stereo not drawn) 0.112%
Cc1ccc(Cn2cc(C(=O)c3ccc(F)cc3)c(=O)c3cc4c(cc32)OCCO4)cc1 -22.3%
CCc1ccccc1NC(=O)CSCc1cnn(-c2ccccc2)c1-n1cccc1 -28.4%
CCOc1ccccc1CNCCNC(=O)c1nonc1N -2.22%
Cc1ccccc1Nc1sc(C(=O)c2ccccc2)c(N)c1C(=O)NCc1ccc(Cl)cc1 -36.7%
Cc1ccc2c(c1)c1c(c(=O)n(-c3ccccc3C)c(=O)n1CC(=O)N1CCCC1)n2C -14.2%
Cc1ccc2ncc3c(-c4ccc(F)cc4)nn(-c4cccc(F)c4)c3c2c1 -13.1%
COc1cc(OC)c(NC(=O)CC(c2cccs2)N2Cc3ccccc3C2=O)cc1Cl (stereo not drawn) -23.8%
CCOC(=O)C1CCN(S(=O)(=O)c2cc3c4c(c2)CC(=O)N4CCC3)CC1 -10.9%
CC1(C)[C@@H](OC(=O)CCC(=O)O)CC[C@]2(C)[C@H]3C(=O)C=C4[C@@H]5C[C@@](C)(C(=O)O)CC[C@]5(C)CC[C@@]4(C)[C@]3(C)CC[C@@H]12 -3.67%
CN(C)S(=O)(=O)n1cc(/C=C(\NC(=O)c2ccccc2Cl)C(=O)NCCCn2ccnc2)c2ccccc21 -6.54%
O=C(NCCc1ccccc1)C1(c2cccs2)CCOCC1 -12.6%
CCN(CC)CCNC(=O)c1nn(-c2ccc(OC)c(Cl)c2)c(=O)c2c1c1ccccc1n2C -1.42%
O=C(CSc1nc2c(c(=O)[nH]1)CN(Cc1ccc(F)cc1)CC2)Nc1ccccc1Cl -24.1%
COc1cccc(C(=O)N2c3nc(-c4ccco4)nn3C3(CCCCC3)[C@@H]3CCCC[C@@H]32)c1 -42.3%
CCc1nn(C(C)C(=O)N2CCN(c3cccc(C(F)(F)F)c3)CC2)c(=O)c2cc3occc3n12 (stereo not drawn) -44.5%
CCCNC(=O)c1c(C)nn(-c2cccc(C)c2)c1-n1cccc1 -19.9%
Cc1ccc(Cl)cc1-n1c(=O)c2sc3ccccc3c2n(Cc2ccccc2)c1=O -13.4%
CCOc1cc(-c2nnc(SCC(=O)NC3CCCC3)nc2-c2ccc(OC)c(OCC)c2)ccc1OC 4.77%
Nc1ncnc(Nc2ccccc2)n1 16%
CC(C)CCN1C(=O)c2ccccc2CC1(C)C(=O)NC1CCC(C)CC1 (stereo not drawn) -7.12%
O=C(CSc1nccn1C1CCCC1)Nc1ccc(C(F)(F)F)cc1 -19.1%
CC(C)c1ccc(-c2nc(C(N)=O)c3c(n2)n(-c2ccc4c(c2)OCO4)c(=O)n3C)cc1 -4.07%
O=C(Nc1cccc(F)c1)[C@H](CSCc1ccccc1)N1Cc2ccccc2C1=O -37.6%
CCOc1ccc(NC(=O)Cn2cc(S(=O)(=O)NC)c(S(=O)(=O)NC)c2)cc1 -9.76%
COc1ccc(NC(=O)C2CCN(S(=O)(=O)c3ccc4[nH]c5c(c4c3)CCCCC5)CC2)cc1 -32.4%
Cn1c(=O)c(Oc2ccc(F)cc2F)cc2cnc(NC3CCOCC3)nc21 -16.6%
CCOc1ccc(NC(=O)Cn2c(=O)n(-c3ccccc3)c(=O)c3ccc(C(=O)NCc4ccc5c(c4)OCO5)cc32)cc1 -49.1%
Cc1ccccc1S(=O)(=O)Cc1ccc(C(=O)NC2CCC(C)CC2)o1 (stereo not drawn) -3.67%
Cc1nc2nc[nH]n2c(=O)c1CCC(=O)Nc1ccc(F)cc1 -5.36%
Cc1ccc(CNC(=O)C2CCN(S(=O)(=O)c3ccc4[nH]c(=O)ccc4c3)CC2)cc1 -27.4%
CCC(C)NC(=O)CSc1nc2cc3c(cc2c(=O)n1CCCCCC(=O)NCc1ccc2c(c1)OCO2)OCO3 (stereo not drawn) -3.61%
Cc1cc(-c2ccc(C)c(S(=O)(=O)NC3CCCCC3)c2)on1 -21.6%
CCOc1ccc(-n2ccnc2SCC(=O)Nc2nc3ccc(C)cc3s2)cc1 -16%
CC1(C)C(=O)N(CC(=O)Nc2cccc(F)c2)c2ccc(S(=O)(=O)N3CCCCC3)cc21 -22.1%
Cc1nn(-c2ccccc2)c2c1N(CC(=O)N1CCN(c3ccc(F)cc3)CC1)C(=O)CS2 3.41%
COc1cccc2cc(C(=O)Nc3ccc(F)c(F)c3)c(=O)oc12 4.22%
O=C(Cn1c(=O)n(Cc2cccs2)c(=O)c2cccnc21)Nc1ccc(F)cc1 -37.7%
CCCCNC(=O)C(Cc1ccccc1)NS(=O)(=O)c1ccc2c(c1)c(=O)n(C)c(=O)n2C (stereo not drawn) -5.72%
CCn1c(=N)c(C(=O)NCc2ccccc2)cc2c(=O)n3cc(C)ccc3nc21 -3.98%
Cc1oc(-c2ccc(C(=O)NCc3ccc(Cl)cc3)cc2)nc1CS(=O)(=O)c1ccccc1 -33.1%
CC(C)c1ccc(N2C(=O)CS(=O)(=O)C23C(=O)N(Cc2cccc(F)c2)c2ccccc23)cc1 (stereo not drawn) -27.5%
CCOc1ccc(-c2ncnn2-c2sc3c(c2C#N)CCCCC3)cc1 14.9%
Cc1cc2c(C(C)C)c(O)c(O)c(C=O)c2c(O)c1-c1c(C)cc2c(C(C)C)c(O)c(O)c(C=O)c2c1O
Cc1ccc(C)c(NC(=O)c2cc(S(=O)(=O)N3CCCc4ccccc43)ccc2F)c1 -14%
Cc1cc(C)c(OCC(=O)N(Cc2ccco2)Cc2ccco2)c(C)c1 -22.2%
COc1ccc(Cn2ccc3nc(C)c(C(=O)Nc4cc(C)cc(C)c4)cc3c2=O)cc1 -16.4%
Cc1nc2ccccc2c(=O)n1-c1ccc(NC(=O)c2cccc([N+](=O)[O-])c2)cc1 -17.2%
CSc1ncc(C(=O)Nc2c(C)cccc2C)c(-c2ccccc2)n1 -12.3%
COc1ccccc1CCNC(=O)c1ccc(-c2nc(CSc3ccc(C)cc3)c(C)o2)cc1 -24.1%
CCCCOc1cccc(C(=O)Nc2cccc(-c3nc4ncccc4o3)c2C)c1 -32.8%
CCOC(=O)C1=C(C)NC(=O)NC1c1cn(-c2ccccc2)nc1-c1ccc(OCC)cc1 (stereo not drawn) -22.3%
C=C1c2cccc(O)c2C(O)=C2C(=O)[C@@]3(O)C(O)=C(C(N)=O)C(=O)[C@@H](N(C)C)[C@@H]3[C@@H](O)[C@H]12 -54.1%
